How the values were obtained:
[1] = system: gene transcription in wild type; assay: Transcriptome analysis with added BMA, wild type; conditions: in the presence of BMA; wild type strain
Procedure: 2. […] Incubate at 37° C. and 250 rpm.
Levels of transcription of acrA and acrB were enhanced in the absence of BMA, however this was very variable. For the wild type strain, exposure to BMA actually reduces the expression level of the global regulator.

[2] = system: E. coli BW25113 isolate 6-soxR(A146del), acrR(indels); conditions: 20% v/v BMA; strain 6
[3] = system: E. coli BW25113 isolate 7-rob(A70V) acrR(indels); conditions: 20% v/v BMA; strain 7
[4] = system: E. coli BW25113 isolate 18-rob(A70T)yohJ(L109R) dnaK(V377G) 927777(C > T) acrR(A191fs); conditions: 20% v/v BMA; strain 18

Question: Which results are given for `C=C(C)C(=O)OCCCC` [BMA, butyl 2-methylprop-2-enoate]?
Answer: Transcription of ibpA, ibpB, ynfM, yibT, pspA, bssR, ybfA, raiA, IdhA, pspB pspC and pspD [1]: reduced; Growth rate [2]: 0.620 ± 0.029 h⁻¹; Lag time [2]: 4 h; Max cell concentration [2]: 0.588 ± 0.029 g/L; Growth rate [3]: 0.613 ± 0.033 h⁻¹; Lag time [3]: 4 h; Max cell concentration [3]: 0.568 ± 0.050 g/L; Growth rate [4]: 0.709 ± 0.015 h⁻¹; Lag time [4]: 5 h; Max cell concentration [4]: 1.036 ± 0.046 g/L

Reference: patent US11781160B2, “Methods for the production of methacrylates” (priority 2018, dated 2023)
